In all, about 48,000 compounds went through this assay and about 120 (0.25%) were called active. About 4% were inconclusive and are not listed. The call rests on the fitted dose curve; in most records, active means well fitted activation curve with a large enough effect; inconclusive means small, poorly fitted or top-dose-only effect, or another doubt; inactive means no such curve, though single readings can be large or run the other way. The list shows a part of the results.

This experiment is described as follows: Primary qHTS for Identification of Small Molecule Activators of Huntingtin-Antisense Promoter Activity. Further: nearly all actives have a fitted effect of over 55% in size. Particulars: HEK293 HTT-AS promoter firefly luciferase reporter, 24 h; series mostly up to 57.5 µM; activity change, positive = activation: at the top concentration. The method in brief: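 HEK293 luciferase promoter-reporter cells (2,500/well) plated 24 h, then compounds added at up to 57.5 uM final for 24 h at 37 °C. Firefly luminescence by Dual-Glo, normalized to vehicle (0%) and zero RLU (-100%).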
(Quantitative high-throughput screening tests each substance at several concentrations.)
Consider `COc1cc(NC(=O)c2ccc(C)cc2)ccc1NC(=O)c1cc2ccccc2o1`, for which the “activity change, positive = activation” value was inactive: 10.3%.

As for `COCC(=O)Nc1c(I)c(C(=O)NCC(O)CO)c(I)c(C(=O)N(C)CC(O)CO)c1I` (stereo not drawn), the “activity change, positive = activation” value is inactive: -10.8%.

`O=C1CSC2(C(=O)N(Cc3ccccc3F)c3ccccc32)N1c1ccc(F)cc1` (stereo not drawn): the “activity change, positive = activation” value is inactive: -36.8%.

With `O=C(NCCc1ccccc1)c1ccc(CS(=O)(=O)c2ccc(Br)cc2)o1`, the “activity change, positive = activation” value is inactive: -16.9%.

For the molecule `COc1ccc(-n2ccnc2SCC(=O)Nc2ccc(F)cc2F)cc1`, the “activity change, positive = activation” value was inactive: -12.9%.

`CCSc1nnc2n(-c3cccc(C)c3)c(=O)c3c4c(sc3n12)CCCC4`: the “activity change, positive = activation” value was inactive: -0.74%.

For the molecule `Cc1coc2ccccc2c1=O`, the “activity change, positive = activation” value is inactive: 3.18%.

Regarding `COc1ccc(CCC(=O)N2CCc3c([nH]c4ccccc34)C2c2ccc(F)cc2)cc1` (stereo not drawn), the “activity change, positive = activation” value was inactive: -33.3%.

With `Cc1ccc2onc(CNC(=O)N3CCN(c4cccc(C)c4C)CC3)c2c1`, the “activity change, positive = activation” value was inactive: -27.3%.

As for `COC(=O)c1c(-c2cccs2)csc1NC(=O)COc1ccc(C(C)(C)C)cc1`, the “activity change, positive = activation” value was inactive: -8.03%.

Consider `CCOc1ccccc1NC(=O)c1nn(-c2ccc(C)cc2)c(=O)n(C)c1=O`, for which the “activity change, positive = activation” value is inactive: -10.4%.

For the molecule `CCOc1ccccc1C1C(C(=O)N2CCCCC2)=C(C)Nc2nc3ccccc3n21` (stereo not drawn), the “activity change, positive = activation” value was inactive: -14.3%.

Turning to `Cc1ccc(C(=O)Nc2ccc(-c3cn4cccnc4n3)cc2)cc1C`, the “activity change, positive = activation” value was inactive: 18%.

Turning to `COc1ccccc1CNc1ccc(-c2nc(-c3cccnc3)no2)cc1[N+](=O)[O-]`, the “activity change, positive = activation” value is inactive: 11.4%.

As to `CCc1ccc(NC(=O)c2sc(-n3nc(C)c(Cc4ccc(OC)cc4)c3C)nc2C)cc1`, the “activity change, positive = activation” value is inactive: -19.6%.

As for `COc1ccc(N(C)C(=O)CCn2cnc3onc(-c4ccc(F)cc4)c3c2=O)c(OC)c1`, the “activity change, positive = activation” value was inactive: -31.9%.

For the molecule `COc1cccc(NC(=O)CN2C(=O)c3cccnc3Oc3ccc(Cl)cc32)c1`, the “activity change, positive = activation” value is inactive: -18.3%.

Regarding `O=C(NCC1CCN(Cc2cccc(Cl)c2)CC1)Nc1cc(Cl)ccc1Cl`, the “activity change, positive = activation” value is inactive: -27.1%.

With `CC(C)(C)OC(=O)N1CCC(c2c(C(=O)N3CCC(c4ccccc4)C3)cnn2-c2cccc(Cl)c2)CC1` (stereo not drawn), the “activity change, positive = activation” value is inactive: -35.3%.

For `N[C@@H](CSSC[C@H](N)C(=O)O)C(=O)O`, the activity change, positive = activation is inactive: -7.34% [at 0.74 µM, percent change from vehicle, -100% = no light].

As for `CCCCCS(=O)(=O)c1oc(-c2cccs2)nc1S(=O)(=O)c1ccc(C)cc1`, the “activity change, positive = activation” value is inactive: -10.3%.

For the molecule `CCCCN(CCCC)C(=O)c1cc2c(=O)n3cccc(C)c3nc2s1`, the “activity change, positive = activation” value was inactive: -13.7%.

As to `COc1ccc(C2CC(=O)N(CC(=O)Nc3cc(C)ccc3C)c3ccccc3S2)cc1` (stereo not drawn), the “activity change, positive = activation” value was inactive: -18%.

On to `Cc1cccc(OCC(=O)N(Cc2cccs2)c2ccc(Cl)cc2)c1C`, for which the “activity change, positive = activation” value is inactive: -32.2%.

As to `O=C1c2oc3ccccc3c(=O)c2C(c2ccccc2)N1Cc1ccc2c(c1)OCO2` (stereo not drawn), the “activity change, positive = activation” value was inactive: 6.23%.

Take `CN1C(=O)c2ccccc2Sc2ccc(NC(=O)c3ccccc3F)cc21`: the “activity change, positive = activation” value is inactive: -41.8%.

For `Cc1c(-c2nsc(NC(=O)c3ccccc3)n2)nnn1-c1ccc(C(F)(F)F)c(Cl)c1`, the “activity change, positive = activation” value is inactive: -19.7%.

In the case of `CCOC(=O)c1cccc(NC(=O)[C@@H](c2ccccc2)N2Cc3ccccc3C2=O)c1`, the “activity change, positive = activation” value was inactive: -22.9%.

Regarding `Cc1cc(C)c(NC(=O)Cc2csc(C)n2)c(Cl)c1`, the “activity change, positive = activation” value is inactive: -2.53%.

For the molecule `CC1COc2c(N3CCN(C)CC3)c(F)cc3c(=O)c(C(=O)O)cn1c23` (stereo not drawn), the activity change, positive = activation entry is “inactive”.

In the case of `CCN1C(=O)c2ccccc2Sc2ccc(C(=O)NCCCN(CC(C)C)CC(C)C)cc21`, the “activity change, positive = activation” value was inactive: -5.52%.

Turning to `CCOC(=O)c1c(S(=O)(=O)N2CCCC(C(=O)Nc3cccc(Cl)c3)C2)c(C)n(C)c1C` (stereo not drawn), the “activity change, positive = activation” value was inactive: 0%.

As to `CCCCN(CC)CCCNC(=O)CCN1N=C(c2ccc(OC)cc2)CCC1=O`, the “activity change, positive = activation” value was inactive: -5.95%.

Turning to `COc1ccccc1NC(=O)C(=O)NCCc1csc(-c2cccc(F)c2)n1`, the “activity change, positive = activation” value is inactive: -27.8%.

On to `COc1cccc(CNC(=O)c2cc3c(s2)-c2ccccc2OC3)c1`, for which the “activity change, positive = activation” value was inactive: -6.15%.

In the case of `COc1ccc(-n2c(=O)c3c4c(sc3n(Cc3ccc(F)cc3)c2=O)CCCC4)c(OC)c1`, the “activity change, positive = activation” value was inactive: -3.86%.

Consider `COc1ccccc1NC(=O)C1=C(C)Nc2ncnn2C1c1ccccc1C(=O)O` (stereo not drawn), for which the “activity change, positive = activation” value was inactive: -1.04%.

As for `COc1ccc(NC(=O)c2cc(C3CC3)nc3c2c(C)nn3-c2ccccc2)cc1`, the “activity change, positive = activation” value is inactive: -23.8%.

`CCOc1ccccc1C(=O)Nc1ccc2nc(N(CC)CC)cc(C)c2c1`: the “activity change, positive = activation” value is inactive: -3.96%.

As for `Cc1ccc(OCC(=O)Nc2nnc(SCc3cc(=O)c4ccccc4[nH]3)s2)cc1`, the “activity change, positive = activation” value was inactive: -18.4%.

With `Cc1cc(N2CCCCC2)nc2ccc(NC(=O)c3cccc(Cl)c3)cc12`, the “activity change, positive = activation” value was inactive: 0%.

In the case of `CCOc1ccc(CNS(=O)(=O)c2cc3c(cc2C)NC(=O)CO3)cc1OC`, the “activity change, positive = activation” value is inactive: -18.1%.

Regarding `CCOc1ccc(C(=O)N2CCC(c3nc4ccccc4o3)CC2)cc1`, the “activity change, positive = activation” value is inactive: -29%.

As for `CSc1cccc(NC(=O)CN2C(=O)COc3ccc(Cl)cc32)c1`, the “activity change, positive = activation” value is inactive: -27.1%.

In the case of `CCOc1ccc(OCC)c(NC(=O)c2nnn(CC(=O)Nc3ccc(C)cc3C)c2N)c1`, the “activity change, positive = activation” value was inactive: -2.89%.

With `CC(C)=CCC1C(=O)N(c2ccccc2)N(c2ccccc2)C1=O`, the “activity change, positive = activation” value is inactive: -18%.

In the case of `Cc1cc2n(n1)C(c1cc(C(C)(C)C)c(O)cc1O)Nc1ccccc1-2` (stereo not drawn), the “activity change, positive = activation” value is inactive: 0.777%.

Take `COc1ccccc1CNC(=O)C(NS(=O)(=O)c1cccs1)C(C)C` (stereo not drawn): the “activity change, positive = activation” value was inactive: -3.97%.

As for `COc1ccc(NC(=O)COc2ccc(-c3nn(C)c(=O)c4ccccc34)cc2)cc1`, the “activity change, positive = activation” value was inactive: -29.1%.

Regarding `COc1ccc(-c2cc3ccc(O)c(CN4CCOCC4)c3oc2=O)cc1OC`, the “activity change, positive = activation” value is inactive: 3.74%.

On to `CCCCOc1ccc(C(=O)Nc2cccc(-c3nc4cccnc4s3)c2)cc1`, for which the “activity change, positive = activation” value was inactive: 5.49%.

As for `COc1ccccc1-c1nnc(SCC(=O)c2ccc(Cl)cc2)n1-c1ccccc1`, the “activity change, positive = activation” value was inactive: -26.5%.

Take `CCCCc1ccc(NC(=O)c2cc3c(=O)n4ccccc4nc3s2)cc1`: the “activity change, positive = activation” value is inactive: 6.64%.

With `CCOc1ccc(NC(=O)CSc2nc3c(oc4ccccc43)c(=O)n2-c2ccccc2C)cc1`, the “activity change, positive = activation” value was inactive: -15.4%.

Turning to `CC(NC(=O)c1ccc2c(c1)CCN2S(=O)(=O)c1ccc(Cl)cc1)c1ccccc1` (stereo not drawn), the “activity change, positive = activation” value was inactive: -20.2%.

As to `CCn1ccc2cc(S(=O)(=O)N3CCCN(C(=O)Nc4cccc(Cl)c4)CC3)ccc21`, the “activity change, positive = activation” value was inactive: -27.5%.

In the case of `COc1ccc(N(C)C(=O)c2cn(C3CCCCC3)c(=O)c3c2c2ccccc2n3C)cc1`, the “activity change, positive = activation” value is inactive: -26.5%.

With `COc1ccc(C2=NN(CC(=O)NCCc3ccc(OC)c(OC)c3)C(=O)CC2)cc1`, the “activity change, positive = activation” value was inactive: -7.08%.

On to `CCOC(=O)C1CCN(C(=O)c2ccc(-n3ccc4ccccc43)s2)CC1`, for which the “activity change, positive = activation” value was inactive: 14.5%.

Regarding `COc1ccc(Cn2ccn(Cc3cccc(OC)c3)c(=O)c2=O)cc1`, the “activity change, positive = activation” value is inactive: -14.9%.

With `O=C1CC[C@H](C(=O)N2CCCCC2)N1`, the “activity change, positive = activation” value was inactive: -1.28%.

With `Cc1ccccc1C1CC(=O)Nc2ccc3ccccc3c21` (stereo not drawn), the “activity change, positive = activation” value was inactive: -30.4%.

As to `Cc1ccc(C(=O)c2cn(CC(=O)Nc3ccc(C)cc3Cl)c3nc(C)ccc3c2=O)cc1`, the “activity change, positive = activation” value was inactive: -11.9%.

For the origin of these results see PubChem BioAssay AID1508624 (National Center for Advancing Translational Sciences (NCATS), 2021).
